# Source: PubChem BioAssay AID1347073 (National Center for Advancing Translational Sciences (NCATS), 2019)
# Screen size: about 45,000 compounds; about 200 (0.44%) were called active. Another 7% or so got no clear call; they are omitted. Calls come from the whole dose curve; as a rule, active = well fitted activation curve with a large enough effect; inconclusive = small, poorly fitted or top-dose-only effect; inactive = no such curve, though single readings can be large or run the other way. The list shows a part of the results.
# Assay: qHTS of TDP-43 Inhibitors: NCGC Sytravon Library Screen; note: 0% is about no effect; nearly all actives have a fitted effect of over 55% in size
# Conditions: yeast TDP-43 toxicity rescue, BacTiter-Glo growth, 24 h; series mostly up to 46.1 µM; growth rescue (activation): at the top concentration
# How it was run: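 TDP-43-expressing yeast, pregrown in raffinose, seeded at OD600 0.02 in galactose medium with compound for 24 hr at 30 deg C. Growth read by BacTiter-Glo luminescence, so rescue of toxicity appears as activation.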
row,Structure (SMILES),growth rescue (activation)
1,COc1cccc(N2CCN(C(C)C(=O)NC34CC5CC(CC(C5)C3)C4)CC2)c1 (stereo not given),inactive: 0.423%
2,CCOC(=O)c1nc2sc3c(c2c(=O)n1C(C)C(=O)OCC)CCCC3 (stereo not given),inactive: 27%
3,CC(C)Cn1c(N)c(C(=O)COC(=O)c2ccc(Cl)cc2)c(=O)n(C)c1=O,inactive: 22.7%
4,CCC(C(=O)Nc1ncc(C)s1)c1ccccc1 (stereo not given),inactive: 0.6%
5,CC1CCN(C(=O)Cn2cc([N+](=O)[O-])ccc2=O)c2ccccc2S1 (stereo not given),inactive: -14.2%
6,O=C1c2ccccc2C(=O)N1Cc1cccnc1,inactive: -13%
7,COC(C(=O)Nc1ccnn1C1CCN(Cc2ccc(C)o2)CC1)c1ccccc1 (stereo not given),inactive: 1.12%
8,CCc1nc(SCC(=O)NC2CC2)c2c(C)c(C)sc2n1,inactive: 8.23%
9,CCC(=O)N1CCCC(C(=O)Nc2nc3ccccc3[nH]2)CC1 (stereo not given),inactive: 8.13%
10,COc1ccc(OC)c(NC(=O)N2CCC3(CC2)Oc2ccccc2C(=O)N3Cc2ccccc2F)c1,inactive: 28.8%
11,CCOC(=O)c1ccc(NC(=S)N(CCN2CCCCCC2)Cc2cccs2)cc1,inactive: 20.6%
12,O=C(CNC(=O)c1ccc(Cl)cc1)NCC(F)(F)F,inactive: 8.12%
13,Cc1ccc(OCC(=O)Nc2ccc(-n3cnnn3)cc2)c(C)c1,inactive: -6.68%
14,C=CCc1cc2c(oc(=O)c3ccccc32)c(C)c1O,inactive: 3.29%
15,Cc1csc(NC(=O)Nc2ccccc2[N+](=O)[O-])n1,inactive: 4.83%
16,N#Cc1c(Nc2cccc(F)c2)sc2c(O)cc(=O)[nH]c12,inactive: -4.73%
17,Cc1ccc(S(=O)(=O)c2nnn3c2nc(NC2CCCCC2)c2sccc23)cc1C,inactive: 7.86%
18,O=C(Nc1ccc2c(c1)OCO2)c1sc2cc(Cl)ccc2c1Cl,inactive: 13.8%
19,Cc1cc(C)cc(OCC(=O)N(Cc2ccco2)Cc2ccccc2Cl)c1,inactive: 17.7%
20,CC(C)c1nnc(NC(=O)CS(=O)(=O)c2ccccc2)s1,inactive: -14.1%
21,Cc1ccc(CNc2nc(NCc3ccccc3)nc3ccsc23)c(C)c1,inactive: 2.61%
22,COc1ccccc1C(=O)NCCN=C1NS(=O)(=O)c2ccccc21,inactive: 8.06%
23,CCOC(=O)c1oc2cc(O)c(CC)cc2c(=O)c1-c1cscn1,inactive: 7.23%
24,CCn1c(=O)n(CC)c2cc(NC(=O)CSc3ccc([N+](=O)[O-])cn3)ccc21,inactive: 15.2%
25,CCCS(=O)(=O)NC(=O)C1(C)CCN(C(=O)c2cc(C(C)(C)C)nn2C)C1 (stereo not given),inactive: 0.803%
26,CCOC(=O)C1=C(N)OC2=C(C(=O)CC(C)(C)C2)C1c1ccc(CC)s1 (stereo not given),inactive: 6.79%
27,CC(C)CCN1CC(=O)N2Cc3[nH]c4ccccc4c3C[C@H]2C1=O,inactive: -0.941%
28,CC1CC(C)CN(C(=O)COC(=O)c2ccc3c(c2)OCCO3)C1 (stereo not given),inactive: 13.1%

row,Structure (SMILES),growth rescue (activation)
1,Cc1cccc(C(=O)N2CCC(N3CCC(C(=O)N4CCOCC4)CC3)CC2)c1,inactive: 8.24%
2,Cc1cc2c(cc(C(=O)OCC(=O)NC3CCCCC3)n2C)o1,inactive: 18.9%
3,COCCNC(=O)c1cc(-c2cccc(Cl)c2)on1,inactive: 24.2%
4,Cc1ccc(NC(=S)N2CCN(Cc3ccccc3)CC2)c(C)c1,inactive: -8.56%
5,Cc1cccc(NC(=O)Cn2c(O)c(N=NC(N)=S)c3ccccc32)c1,inactive: 7.32%
6,O=C(COC(=O)/C=C/c1cccc([N+](=O)[O-])c1)Nc1cccnc1Cl,inactive: 13.3%
7,CN1CCN(/N=C/c2ccc(-c3ccccc3)cc2)CC1,inactive: 14.5%
8,CC(=O)c1ccc(NC(=O)CN2CCCC2)cc1,inactive: -7.62%
9,COc1ccc(CN(CCC(c2ccccc2)c2ccco2)C(=O)c2ccco2)cc1 (stereo not given),inactive: 12.5%
10,Cc1ccccc1OCC(=O)Nc1ccc(S(=O)(=O)Nc2ccccn2)cc1,inactive: 14.5%
11,Cc1cccc(OC(C)C(=O)N/N=C\c2ccncc2)c1 (stereo not given),inactive: -0.441%
12,CCCNC(=O)C1(C)CCCN(Cc2ccc3c(c2)OCO3)C1 (stereo not given),inactive: 7.81%
13,CCCC(C)(C)C(=O)N1CCC1(C)C(=O)Nc1ccc(OC)c(OC)c1 (stereo not given),inactive: 25.5%
14,CS(=O)(=O)c1ncc(CO)n1Cc1ccccc1,inactive: 1.78%
15,O=C(c1nc2ccccn2c1CN1CCCC(c2nc3ccccc3o2)C1)N1CCCC1 (stereo not given),inactive: 1.47%
16,CCc1ccccc1NC(=O)Nc1ccc(F)cc1F,inactive: -1.42%
17,COc1ccc(CCC(=O)N/N=C\c2cccs2)cc1,inactive: -5.23%
18,COc1ccc(S(=O)(=O)N2CCN(S(=O)(=O)c3ccc4c(c3)OCCO4)CC2)cc1C,inactive: 30.8%
19,CCOc1ccc2nc(SCC(=O)NCc3ccccc3OC)[nH]c2c1,inactive: -8.02%
20,COCC1CCN(Cc2nc(COc3ccccc3)no2)C1 (stereo not given),inactive: 10.5%
21,CC(C)(C)OC(=O)N/N=C\c1ccc([N+](=O)[O-])s1,inactive: -92.3%
22,Cc1c(Cc2ccccc2)c(=O)oc2c(O)c(O)ccc12,inactive: -13.3%
23,CCOCc1nnc(NC(=O)CCS(=O)(=O)Cc2ccccc2)s1,inactive: 2.42%
24,CCC(C)N(C(=O)CSc1nnc(-c2cccs2)n1C1CC1)C1CCS(=O)(=O)C1 (stereo not given),inactive: 16.6%
25,Cc1cc(C)n(CCCN2C(=O)c3cccc4cccc(c34)C2=O)n1,inactive: -0.643%
26,CCN(CC)c1ccc2nc3c(=O)n(C)c(=O)n(C)c3nc2c1,inactive: -14.9%
27,COc1ccc(C)cc1S(=O)(=O)N(CC(=O)Nc1cccc([N+](=O)[O-])c1)c1ccccc1,inactive: 17.8%
